Experimental data reported in article PMC9911399, “Two distinct binding modes provide the RNA-binding protein RbFox with extraordinary sequence specificity”.
Where a chain is given by its changes, count along the chain named. Some of the results follow.

T1: RBFOX1 RRM RbFoxmut (Fox-RRM*) (Homo sapiens, UniProt Q9NWB1 109-208, R118D;E147R;N151S;E152T)
T1 sequence: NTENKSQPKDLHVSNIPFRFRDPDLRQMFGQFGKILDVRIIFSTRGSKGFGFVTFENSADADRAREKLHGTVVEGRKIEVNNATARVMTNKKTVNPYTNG

B1: UGCUUUC (DNA:RNA)
RNA: GGGAGACCGGAAUUCAGAUUGUCCUGCUUUCUUAAAUCCCGUCGUAGCCACCA
DNA 1: CAATCTGAATTCCGGTCTCCC
DNA 2: TGGTGGCTACGACGGGATT
B2: CUUAGUC (DNA:RNA)
RNA: B1 RNA with U25C, G26U, C27U, U28A, U29G
DNA 1: CAATCTGAATTCCGGTCTCCC
DNA 2: TGGTGGCTACGACGGGATT
B3: UCGUAUA (DNA:RNA)
RNA: B1 RNA with G26C, C27G, U29A, C31A
DNA 1: CAATCTGAATTCCGGTCTCCC
DNA 2: TGGTGGCTACGACGGGATT
B4: UACCGCU (DNA:RNA)
RNA: B1 RNA with G26A, U28C, U29G, U30C, C31U
DNA 1: CAATCTGAATTCCGGTCTCCC
DNA 2: TGGTGGCTACGACGGGATT
B5: CUCUCAC (DNA:RNA)
RNA: B1 RNA with U25C, G26U, U29C, U30A
DNA 1: CAATCTGAATTCCGGTCTCCC
DNA 2: TGGTGGCTACGACGGGATT
B6: CACGGAA (DNA:RNA)
RNA: B1 RNA with U25C, G26A, U28G, U29G, U30A, C31A
DNA 1: CAATCTGAATTCCGGTCTCCC
DNA 2: TGGTGGCTACGACGGGATT
B7: GAGUUGA (DNA:RNA)
RNA: B1 RNA with U25G, G26A, C27G, U30G, C31A
DNA 1: CAATCTGAATTCCGGTCTCCC
DNA 2: TGGTGGCTACGACGGGATT
B8: GAAUCGC (DNA:RNA)
RNA: B1 RNA with U25G, G26A, C27A, U29C, U30G
DNA 1: CAATCTGAATTCCGGTCTCCC
DNA 2: TGGTGGCTACGACGGGATT
B9: GAUUAAC (DNA:RNA)
RNA: B1 RNA with U25G, G26A, C27U, U29A, U30A
DNA 1: CAATCTGAATTCCGGTCTCCC
DNA 2: TGGTGGCTACGACGGGATT
B10: UCCAACU (DNA:RNA)
RNA: B1 RNA with G26C, U28A, U29A, U30C, C31U
DNA 1: CAATCTGAATTCCGGTCTCCC
DNA 2: TGGTGGCTACGACGGGATT
B11: AUGUUAG (DNA:RNA)
RNA: B1 RNA with U25A, G26U, C27G, U30A, C31G
DNA 1: CAATCTGAATTCCGGTCTCCC
DNA 2: TGGTGGCTACGACGGGATT
B12: ACGAUUA (DNA:RNA)
RNA: B1 RNA with U25A, G26C, C27G, U28A, C31A
DNA 1: CAATCTGAATTCCGGTCTCCC
DNA 2: TGGTGGCTACGACGGGATT
B13: CAUGGUC (DNA:RNA)
RNA: B1 RNA with U25C, G26A, C27U, U28G, U29G
DNA 1: CAATCTGAATTCCGGTCTCCC
DNA 2: TGGTGGCTACGACGGGATT
B14: AUAUGGC (DNA:RNA)
RNA: B1 RNA with U25A, G26U, C27A, U29G, U30G
DNA 1: CAATCTGAATTCCGGTCTCCC
DNA 2: TGGTGGCTACGACGGGATT
B15: ACUUCCA (DNA:RNA)
RNA: B1 RNA with U25A, G26C, C27U, U29C, U30C, C31A
DNA 1: CAATCTGAATTCCGGTCTCCC
DNA 2: TGGTGGCTACGACGGGATT
B16: AUCCGCG (DNA:RNA)
RNA: B1 RNA with U25A, G26U, U28C, U29G, U30C, C31G
DNA 1: CAATCTGAATTCCGGTCTCCC
DNA 2: TGGTGGCTACGACGGGATT
B17: UACGGAC (DNA:RNA)
RNA: B1 RNA with G26A, U28G, U29G, U30A
DNA 1: CAATCTGAATTCCGGTCTCCC
DNA 2: TGGTGGCTACGACGGGATT
B18: UAUGGAG (DNA:RNA)
RNA: B1 RNA with G26A, C27U, U28G, U29G, U30A, C31G
DNA 1: CAATCTGAATTCCGGTCTCCC
DNA 2: TGGTGGCTACGACGGGATT
B19: CCGGGUC (DNA:RNA)
RNA: B1 RNA with U25C, G26C, C27G, U28G, U29G
DNA 1: CAATCTGAATTCCGGTCTCCC
DNA 2: TGGTGGCTACGACGGGATT
B20: UGGAAUC (DNA:RNA)
RNA: B1 RNA with C27G, U28A, U29A
DNA 1: CAATCTGAATTCCGGTCTCCC
DNA 2: TGGTGGCTACGACGGGATT
B21: CGCCUCU (DNA:RNA)
RNA: B1 RNA with U25C, U28C, U30C, C31U
DNA 1: CAATCTGAATTCCGGTCTCCC
DNA 2: TGGTGGCTACGACGGGATT
B22: GAGCAAC (DNA:RNA)
RNA: B1 RNA with U25G, G26A, C27G, U28C, U29A, U30A
DNA 1: CAATCTGAATTCCGGTCTCCC
DNA 2: TGGTGGCTACGACGGGATT
B23: UCUAAUC (DNA:RNA)
RNA: B1 RNA with G26C, C27U, U28A, U29A
DNA 1: CAATCTGAATTCCGGTCTCCC
DNA 2: TGGTGGCTACGACGGGATT
B24: ACUUGAG (DNA:RNA)
RNA: B1 RNA with U25A, G26C, C27U, U29G, U30A, C31G
DNA 1: CAATCTGAATTCCGGTCTCCC
DNA 2: TGGTGGCTACGACGGGATT
B25: GGCACGC (DNA:RNA)
RNA: B1 RNA with U25G, U28A, U29C, U30G
DNA 1: CAATCTGAATTCCGGTCTCCC
DNA 2: TGGTGGCTACGACGGGATT
B26: UACGCCC (DNA:RNA)
RNA: B1 RNA with G26A, U28G, U29C, U30C
DNA 1: CAATCTGAATTCCGGTCTCCC
DNA 2: TGGTGGCTACGACGGGATT
B27: UUCUGCU (DNA:RNA)
RNA: B1 RNA with G26U, U29G, U30C, C31U
DNA 1: CAATCTGAATTCCGGTCTCCC
DNA 2: TGGTGGCTACGACGGGATT
B28: UCUUACA (DNA:RNA)
RNA: B1 RNA with G26C, C27U, U29A, U30C, C31A
DNA 1: CAATCTGAATTCCGGTCTCCC
DNA 2: TGGTGGCTACGACGGGATT
B29: GGGAGGC (DNA:RNA)
RNA: B1 RNA with U25G, C27G, U28A, U29G, U30G
DNA 1: CAATCTGAATTCCGGTCTCCC
DNA 2: TGGTGGCTACGACGGGATT
B30: UGAACAA (DNA:RNA)
RNA: B1 RNA with C27A, U28A, U29C, U30A, C31A
DNA 1: CAATCTGAATTCCGGTCTCCC
DNA 2: TGGTGGCTACGACGGGATT
B31: CUUAGCC (DNA:RNA)
RNA: B1 RNA with U25C, G26U, C27U, U28A, U29G, U30C
DNA 1: CAATCTGAATTCCGGTCTCCC
DNA 2: TGGTGGCTACGACGGGATT

Molecular target: T1, RBFOX1 RRM RbFoxmut (Fox-RRM*)
Test: EMSA; HiTS-Eq, 1 nM pool, 10 min; buffer printed only for the single-RNA assays: 10 mM Tris pH 7.5, 150 mM NaCl, 3.4 mM EDTA, 0.001% NP-40, 30 C
Details: tags: His6 N-terminal (pET28a); label: 5' 32P
Summary of the method: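 These values rest on relative association constants, computed from read-count changes of each RNA species versus the control reaction and normalised to the cognate motif. Reads came from free RNA recovered by 8% native PAGE after purified RbFox RRM (wild type or mutant) at increasing concentrations was equilibrated for 10 min in 50 µL with 1 nM of a 5′-radiolabelled pool with 7 randomized nucleotides and DNA-annealed flanks.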

Row | Binder | binding signal
1 | B1 | 0.0833 KA relative to UGCAUGU
2 | B2 | 0.104 KA relative to UGCAUGU
3 | B3 | 0.157 KA relative to UGCAUGU
4 | B4 | 0.0903 KA relative to UGCAUGU
5 | B5 | 0.0938 KA relative to UGCAUGU
6 | B6 | 0.0884 KA relative to UGCAUGU
7 | B7 | 0.0977 KA relative to UGCAUGU
8 | B8 | 0.512 KA relative to UGCAUGU
9 | B9 | 0.0762 KA relative to UGCAUGU
10 | B10 | 0.103 KA relative to UGCAUGU
11 | B11 | 0.213 KA relative to UGCAUGU
12 | B12 | 0.0953 KA relative to UGCAUGU
13 | B13 | 0.186 KA relative to UGCAUGU
14 | B14 | 0.138 KA relative to UGCAUGU
15 | B15 | 0.0542 KA relative to UGCAUGU
16 | B16 | 0.118 KA relative to UGCAUGU

Row | Binder | binding signal
17 | B17 | 0.0866 KA relative to UGCAUGU
18 | B18 | 0.105 KA relative to UGCAUGU
19 | B19 | 0.217 KA relative to UGCAUGU
20 | B20 | 0.458 KA relative to UGCAUGU
21 | B21 | 0.0759 KA relative to UGCAUGU
22 | B22 | 0.062 KA relative to UGCAUGU
23 | B23 | 0.0543 KA relative to UGCAUGU
24 | B24 | 0.13 KA relative to UGCAUGU
25 | B25 | 0.109 KA relative to UGCAUGU
26 | B26 | 0.0936 KA relative to UGCAUGU
27 | B27 | 0.0845 KA relative to UGCAUGU
28 | B28 | 0.106 KA relative to UGCAUGU
29 | B29 | 0.0783 KA relative to UGCAUGU
30 | B30 | 0.047 KA relative to UGCAUGU
31 | B31 | 0.159 KA relative to UGCAUGU
